cAMP reporter score and surface expression score data for 32 variants are collected here from the GPR68 mutational scans of Howard et al. (2025).

B1: GPR68, Q15743 (parent)
chain: MGNITADNSSMSCTIDHTIHQTLAPVVYVTVLVVGFPANCLSLYFGYLQIKARNELGVYLCNLTVADLFYICSLPFWLQYVLQHDNWSHGDLSCQVCGILLYENIYISVGFLCCISVDRYLAVAHPFRFHQFRTLKAAVGVSVVIWAKELLTSIYFLMHEEVIEDENQHRVCFEHYPIQAWQRAINYYRFLVGFLFPICLLLASYQGILRAVRRSHGTQKSRKDQIQRLVLSTVVIFLACFLPYHVLLLVRSVWEASCDFAKGVFNAYHFSLLLTSFNCVADPVLYCFVSETTHRDLARLRGACLAFLTCSRTGRAREAYPLGAPEASGKSGAQGEEPELLTKLHPAFQTPNSPGSGGFPTGRLA

In series [1] the parent is B1. The series can be described thus: cAMP reporter score (Enrich2 score, wild type = 0); higher = more signal; HEK293T, FACS bins.
In series [2] the parent is B1. The series can be described thus: surface expression score (Enrich2 score, wild type = 0); higher = more signal; HEK293T, FACS bins.

Scores whose standard error is large were omitted. Two further conditions of the source, in which the scores hardly spread, are not listed. Names with del lack the residues named; names with ins carry added residues between the positions named. For some of these results: How much ogerin was present is not stated here.

With F265W, the cAMP reporter score in series [1] (pH 5.5) is -0.926; in series [1] (pH 6, modulator: ogerin), -0.646; in series [1] (pH 6.5, modulator: ogerin) it was -1.09. Moreover, the surface expression score in series [2] was found to be 0.816.
Turning to H269_F270insGSG, the cAMP reporter score in series [1] (pH 5.5) is -1.53; in series [1] (pH 6) it was -0.397; in series [1] (pH 6, modulator: ogerin), -1.49; in series [1] (pH 6.5, modulator: ogerin), -0.76. Besides, the surface expression score in series [2] was -2.61.
For the variant S271_L272insG, the cAMP reporter score was -0.285 in series [1] (pH 5.5); -1.06 in series [1] (pH 6); -1.3 in series [1] (pH 6, modulator: ogerin); -1.11 in series [1] (pH 6.5, modulator: ogerin). In addition, in series [2], the surface expression score was -2.26.
Regarding F265_N266insGSG, the cAMP reporter score is -1.38 in series [1] (pH 5.5); 0.18 in series [1] (pH 6); -1.46 in series [1] (pH 6, modulator: ogerin); -0.643 in series [1] (pH 6.5, modulator: ogerin). In addition, in series [2], the surface expression score is -1.61.
For S271_L273del, the cAMP reporter score in series [1] (pH 5.5) is -1.5; in series [1] (pH 6) it was -0.817; in series [1] (pH 6, modulator: ogerin) it was -1.32; in series [1] (pH 6.5, modulator: ogerin), -0.997.
With T275W, the cAMP reporter score is -1.35 in series [1] (pH 5.5); -0.451 in series [1] (pH 6); -1.54 in series [1] (pH 6.5, modulator: ogerin). For the same variant, the surface expression score in series [2] was -2.21.
On to T275A, for which the cAMP reporter score is -0.319 in series [1] (pH 5.5); -1.75 in series [1] (pH 6); -0.694 in series [1] (pH 6, modulator: ogerin); -0.892 in series [1] (pH 6.5, modulator: ogerin). The surface expression score in series [2] turned out to be 2.47.
Turning to T275G, the cAMP reporter score in series [1] (pH 5.5) was -1.2; in series [1] (pH 6) it was -1.57; in series [1] (pH 6.5, modulator: ogerin), -0.977.
For T275H, the cAMP reporter score in series [1] (pH 5.5) was -1.76; in series [1] (pH 6), -1.5; in series [1] (pH 6, modulator: ogerin), -1.71; in series [1] (pH 6.5, modulator: ogerin) it was -1.38. Further, the surface expression score in series [2] is -1.89.
For the variant T275V, the cAMP reporter score was found to be 0.707 in series [1] (pH 5.5); 0.059 in series [1] (pH 6); 0.7 in series [1] (pH 6, modulator: ogerin); 0.433 in series [1] (pH 6.5, modulator: ogerin). Further, the surface expression score in series [2] amounted to 0.575.
The corresponding values for T275L are -0.214, -0.725, -0.474, -0.478 and -0.369.
T275K: the cAMP reporter score in series [1] (pH 5.5) is -1.91; in series [1] (pH 6), -0.987; in series [1] (pH 6, modulator: ogerin), -2.21; in series [1] (pH 6.5, modulator: ogerin), -1.75. Besides, the surface expression score in series [2] was -2.96.
For T275F, the cAMP reporter score in series [1] (pH 5.5) is -1.6; in series [1] (pH 6) it was -0.191; in series [1] (pH 6.5, modulator: ogerin), -1.23. Moreover, the surface expression score in series [2] was -2.03.
For T275E, the cAMP reporter score is -1.05 in series [1] (pH 5.5); -0.305 in series [1] (pH 6); -0.771 in series [1] (pH 6, modulator: ogerin); -1.26 in series [1] (pH 6.5, modulator: ogerin). Also, the surface expression score in series [2] is -2.22.
For the variant T275Q, the cAMP reporter score in series [1] (pH 5.5) is -0.729; in series [1] (pH 6) it was -1.17; in series [1] (pH 6, modulator: ogerin), -1.06; in series [1] (pH 6.5, modulator: ogerin), -0.131. In series [2], the surface expression score was -1.83.
T275I: the cAMP reporter score in series [1] (pH 5.5) is -0.078; in series [1] (pH 6), -0.16; in series [1] (pH 6, modulator: ogerin), -0.87; in series [1] (pH 6.5, modulator: ogerin) it was -1.28. Moreover, the surface expression score in series [2] was -1.13.
For T275N, the cAMP reporter score was -1.42 in series [1] (pH 5.5); -0.779 in series [1] (pH 6); -1.93 in series [1] (pH 6, modulator: ogerin); -0.486 in series [1] (pH 6.5, modulator: ogerin).
For the variant T275C, the cAMP reporter score in series [1] (pH 5.5) was -0.698; in series [1] (pH 6), -1.3; in series [1] (pH 6, modulator: ogerin), -2.05; in series [1] (pH 6.5, modulator: ogerin), -0.751. Moreover, in series [2], the surface expression score was 0.824.
Consider T275S, for which the cAMP reporter score in series [1] (pH 5.5) was -0.132; in series [1] (pH 6, modulator: ogerin), -0.615; in series [1] (pH 6.5, modulator: ogerin), -0.146. The surface expression score in series [2] was 0.237.
As for T275M, the cAMP reporter score in series [1] (pH 5.5) was -0.04; in series [1] (pH 6) it was -0.575; in series [1] (pH 6, modulator: ogerin), -1.1; in series [1] (pH 6.5, modulator: ogerin) it was -1.1. For the same variant, in series [2], the surface expression score turned out to be 0.024.
As for T275D, the cAMP reporter score in series [1] (pH 5.5) was -1.15; in series [1] (pH 6), -1.58; in series [1] (pH 6, modulator: ogerin) it was -2.33; in series [1] (pH 6.5, modulator: ogerin) it was -1.93. In series [2], the surface expression score is -1.53.
The corresponding values for T275P are -0.509, 0.065, -1.19, -1.34 and -1.63.
With T275Y, the cAMP reporter score in series [1] (pH 5.5) is -1.51; in series [1] (pH 6), -2.07; in series [1] (pH 6, modulator: ogerin), -1.02; in series [1] (pH 6.5, modulator: ogerin) it was -1.09. Also, the surface expression score in series [2] was -2.12.
Taken in the same sequence, the figures for S276_F277insGS were -0.846, -0.731, -1.84, -1.03 and -2.52.
For the variant H269_F270insG, the cAMP reporter score in series [1] (pH 5.5) was -1.89; in series [1] (pH 6), -1.36; in series [1] (pH 6, modulator: ogerin) it was -1.82; in series [1] (pH 6.5, modulator: ogerin) it was -1.45. Also, in series [2], the surface expression score is -1.74.
As to Y268_H269insGSG, the cAMP reporter score is -2.09 in series [1] (pH 5.5); -1.2 in series [1] (pH 6); -1.84 in series [1] (pH 6, modulator: ogerin); -1.22 in series [1] (pH 6.5, modulator: ogerin). Besides, the surface expression score in series [2] is -2.23.
As for F265del, the cAMP reporter score in series [1] (pH 5.5) was -1.42; in series [1] (pH 6) it was 0.298; in series [1] (pH 6, modulator: ogerin), -1.5; in series [1] (pH 6.5, modulator: ogerin) it was -1.01. For the same variant, the surface expression score in series [2] is -0.84.
Regarding L274_S276del, the cAMP reporter score was -1.3 in series [1] (pH 5.5); -1.28 in series [1] (pH 6); -1.71 in series [1] (pH 6, modulator: ogerin); -0.627 in series [1] (pH 6.5, modulator: ogerin). Further, the surface expression score in series [2] was -3.09.
For L273_T275del, the cAMP reporter score was -1.21 in series [1] (pH 5.5); -0.648 in series [1] (pH 6); -1.48 in series [1] (pH 6, modulator: ogerin); -1.09 in series [1] (pH 6.5, modulator: ogerin). The surface expression score in series [2] is -2.51.
With S271_L272insGS, the cAMP reporter score in series [1] (pH 5.5) is -0.416; in series [1] (pH 6, modulator: ogerin) it was -0.648; in series [1] (pH 6.5, modulator: ogerin) it was -0.441.
Take F270_S271insG: the cAMP reporter score in series [1] (pH 5.5) is -1.6; in series [1] (pH 6.5, modulator: ogerin), -1.01. The surface expression score in series [2] was -2.94.
Take T275_S276insGS: the cAMP reporter score was -0.745 in series [1] (pH 5.5); -0.007 in series [1] (pH 6); -1.24 in series [1] (pH 6, modulator: ogerin); -1.74 in series [1] (pH 6.5, modulator: ogerin). Also, the surface expression score in series [2] is -1.71.
